PubChem BioAssay (NCI)
Where “and” joins values, the source holds several entries; their conditions need not be identical. Equal values may be shown once.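 Tested at 5 concentrations; 48 h exposure; 96-well plates; endpoints linearly interpolated, else capped at highest concentration. GI50 is the concentration that inhibits growth by half. TGI: concentration producing complete growth inhibition.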

Test system: NCI-H322M lung
Assay: inhibition of tumour cell growth, NCI panel, 48 h

Row | Structure (SMILES) | GI50 | TGI
1 | CC(=O)[CH-]C(=O)c1ccccc1.CC(=O)[CH-]C(=O)c1ccccc1.CC(=O)[CH-]C(=O)c1ccccc1.[Nd+3].[OH3+] | 37.5 µM | > 100 µM
2 | COC(=O)CCNC(=O)OCc1ccccc1 |  | > 100 µM
3 | O=C(NCC1CCCO1)c1ccc(NC2=C(Cl)C(=O)N(Cc3ccccc3)C2=O)cc1 (stereo not given) | 16.1 µM | 30.1 µM
4 | NC1=NN(c2ccccc2)C(=O)C1C(=O)C(=O)Nc1ccc(Cl)c(Cl)c1 (stereo not given) |  | > 100 µM
5 | O=C(/C=C/c1ccccc1)Nc1ccccc1SCCCCl |  | > 100 µM
6 | O=C(NNC(=S)NC1CCCCC1)C12CC3CC(CC(C3)C1)C2 |  | > 100 µM
7 | N#Cc1cnc(Nc2cc(NC[C@H]3CNCCO3)c(C(F)(F)F)cn2)cn1 | 8.43 µM | 62.3 µM
8 | O=C(CCN1CCCCC1)N1CCc2c([nH]c3ccccc23)C1c1cccnc1 (stereo not given) |  | > 100 µM
9 | CC1C2C=C(O)C(=O)C(C2=O)C1c1ccccc1 (stereo not given) |  | > 100 µM
10 | C=CCc1c(O)c2nsnc2c2nsnc12 |  | > 10 µM
11 | Clc1cccc(C2N3CCCCC3[C@@H]3c4[nH]c5ccccc5c4CCN23)c1 (stereo not given in full) |  | > 100 µM
12 | CC(C)=CCCC(C)CCOS(=O)C(F)(F)F (stereo not given) |  | > 100 µM
13 | Cc1cccc(C)c1N1C(=O)C(=O)C(c2nc3ccccc3s2)/C(=N\N)C1=O (stereo not given) |  | > 100 µM
14 | CN(C)c1c(C2OC(CO)C(O)C2O)c(=O)c1=O (stereo not given) |  | > 100 µM
15 | Cc1cc(-c2cc(O)ccc2Cl)cc2nnc(Nc3ccc(OCCN4CCCC4)cc3)nc12 | 1.74 µM | 3.14 µM
16 | CCOc1ccccc1N=Nc1c(-c2ccccc2)nn(C(=O)CC(=O)Nc2cccc(C)c2)c1-c1ccccc1 |  | > 100 µM
17 | CC(=O)C1=C(O)C=C2Oc3c(C(=O)/C=C/c4cc(Cl)cc(Cl)c4)c(O)c(C)c(O)c3[C@]2(C)C1=O | 0.578 µM | 2.7 µM
18 | CC(=O)OCC(=O)OC[C@H](OCc1ccccc1)[C@@H]1[C@H](OC(C)=O)C(=O)N1Cc1ccccc1 |  | > 100 µM
19 | CCCc1cc(COC)c(C#N)c(=O)[nH]1 |  | > 100 µM
20 | COc1cccc(/C=C2\S/C(=N/Nc3nc(C)c(C)s3)NC2=O)c1O |  | > 100 µM
21 | C/C=C1/CC(C)C(C)(O)C(=O)OCC2C(O)CN3CCC(OC1=O)C23 (stereo not given) |  | > 100 µM
22 | COc1cc(C2(c3ncc[nH]3)SSSCC2O)ccc1O (stereo not given) |  | > 100 µM
23 | CC(=O)[C@H]1CCC2[C@@H]3CC=C4C[C@@H]([O-])CC[C@]4(C)C3CC[C@@]21C.CC(=O)[C@H]1CCC2[C@@H]3CC=C4C[C@@H]([O-])CC[C@]4(C)C3CC[C@@]21C.CC(=O)[CH-]C(=O)c1ccccc1.CC(=O)[CH-]C(=O)c1ccccc1.Cl.[Ti+4] (stereo not given in full) | 29.7 µM | > 100 µM
24 | Cc1nc2c(o1)C(=Nc1ccccc1)c1nc(C)oc1C2=Nc1ccccc1 |  | 60.6 µM

Row | Structure (SMILES) | GI50 | TGI
25 | [B-][P+](CC[P+]1([B-])[C@@H](C)[C@@H](O)[C@H](O)[C@@H]1C)(c1ccccc1)c1ccccc1OC (stereo not given in full) |  | 26.6 µM
26 | COC(=O)c1cc(NC(=O)Cc2c[nH]c3ccccc23)cn1C |  | > 100 µM
27 | COC1CC(OC2C(C)OC(OC3C(C)OC(OC4C(C)OC(O[C@H]5CC[C@@]6(C)C(=CC[C@]7(O)[C@@H]6C[C@@H](OC(C)=O)[C@@]6(C)[C@]7(O)CC[C@@]6(O)C(C)=O)C5)CC4OC)CC3OC)CC2OC)OC(C)C1O (stereo not given in full) |  | > 25 µM
28 | Cc1cccc2sc(-c3ccc(O)cc3)nc12 |  | 30.8 µM
29 | CC(=O)N1N=C(c2ccc(Nc3nc(Nc4ccc(F)cc4)nc(Nc4ccc(F)cc4)n3)cc2)CC1c1ccc(N(C)C)cc1 (stereo not given) | 17.8 µM | 70 µM
30 | COC(=O)c1cc2c3ccccc3n3c2c(n1)-c1[nH]c2ccccc2c(=O)c1C3 | > 100 µM | > 100 µM
31 | COc1ccccc1C(O)[C@@H]1C[C@@H]2[C@H]3CC[C@@](C)([C@@H]2O1)C3(C)C (stereo not given in full) |  | 50.5 µM
32 | CCN(CC)CCN(C)c1ccc(CO)c2c1C(=O)c1ccccc1S2=O (stereo not given) |  | 20.6 µM
33 | CC(Nc1ccc(Cl)c(Cl)c1)c1ccncc1 (stereo not given) |  | 8.06 µM
34 | Cn1cc(-c2cnn3c(N)c(Br)c(C4CCCNC4)nc23)cn1 (stereo not given) | 13 µM | > 100 µM
35 | NS(=O)(=O)c1cc(C(=O)O)c(O)c2ccccc12 |  | > 100 µM
36 | COC(=O)C1C(=O)O[C@@H](c2cc(OC)c(OC)cc2OC)C1C(=O)OC (mixture of isomers) |  | > 100 µM
37 | O=C(O)C1[O][Sb][O]C(C(=O)O)C1O (stereo not given) | > 100 µM | > 100 µM
38 | CC(C)(Cl)C(Br)CCC(Br)(CCl)C(Cl)CBr (stereo not given) |  | > 10 µM
39 | CN1CCN(C(=O)COc2ccc(/C=C3\CC4C5CC=C6CC(Cl)CCC6(C)C5CCC4(C)C3=O)cc2)CC1 (stereo not given) | > 100 µM | > 100 µM
40 | COc1c(-c2ccccc2)nc2ccc(Oc3ccccc3)nn12 |  | > 100 µM
41 | O=C1CCc2ccc(O)c(c2)Oc2ccc(cc2)C(Sc2ccccc2)CCO1 (stereo not given) |  | 28.3 µM
42 | C/C(=C(\c1ccc(OCCN2CCCCCC2)cc1)c1ccc(OC(=O)c2ccccc2)cc1)c1ccc(Cl)cc1 | 5.56 µM | 15.6 µM
43 | Clc1ccc(CCN[C@H]2CCCC[C@H]2N2CCCC2)cc1Cl |  | 50.3 µM
44 | CC(=O)[C@H]1CCC/C=C/[C@@H]2C[C@H](O)C[C@H]2[C@H](O)/C=C/C(=O)O1 | 1.14 µM | 40.3 µM
45 | Clc1ccccc1-c1nnc2c(Cc3ccccc3)nc3ccccc3n12 | > 73.4 µM | > 100 µM
46 | COc1cc(/C=N/N=C(\N)NO)c(Cl)cc1O |  | > 100 µM
47 | CCCCCCCCCOCC(COP(=O)([O-])OCC[N+](C)(C)C)OC (stereo not given) |  | > 100 µM
48 | CCOC(=O)NC(Nc1ccc(F)cc1)(C(=O)OCC)C(F)(F)F (stereo not given) |  | > 100 µM

Row | Structure (SMILES) | GI50 | TGI
49 | COc1cc(C(=O)c2cnc(-c3cccc4[nH]ccc34)[nH]2)cc(OC)c1OC | 0.0501 µM and < 0.01 µM | > 100 µM
50 | CC(C)C1NC(=O)CC(c2ccccc2)N(N=O)C1c1ccccc1 (stereo not given) |  | > 100 µM
51 | O=C1O/C(=C/c2ccccc2)C(c2ccccc2)=C1O |  | > 100 µM
52 | O=C1/C(=C/c2ccccc2[N+](=O)[O-])N=C(c2ccccc2)N1c1nc2ccccc2s1 |  | > 100 µM
53 | C=CCC(N[C@H](CO)c1ccccc1)c1cn(Cc2ccccc2Cl)c(=O)n(Cc2ccccc2Cl)c1=O (stereo not given in full) | 26.8 µM | > 100 µM
54 | O=C1Nc2nccnc2C(=O)N2CCC[C@@H]12 |  | > 100 µM
55 | Nc1c(Cl)ncnc1NCCCCCCCCCCCCNc1ncnc(Cl)c1N |  | > 100 µM
56 | COC(=O)[C@@]12CC(C(C)C)[C@H]3CC(C(=O)C=C1OC)[C@H]32 (stereo not given in full) |  | > 100 µM
57 | COc1c(C(=O)NCCN(CCNC(=O)c2cccc(-c3cccc(C(=O)N(C)C)c3OC)c2OC)CCNC(=O)c2cccc(-c3cccc(C(=O)N(C)C)c3OC)c2OC)cccc1-c1cccc(C(=O)N(C)C)c1OC |  | > 100 µM
58 | CNS(=O)(=O)NNS(=O)(=O)c1ccc(OC)cc1 |  | > 100 µM
59 | CC(C)CCCCCCCCCCCCC(=O)NCC(=O)NC1C(O)C(O)C(Nc2ncnc3nc[nH]c23)OC1C(O)CO (stereo not given) |  | 0.0347 µM and 0.0943 µM and 0.286 µM
60 | CN(/N=C\c1ccnc2ccccc12)c1ccc([N+](=O)[O-])cc1 |  | > 100 µM
61 | COC(=O)C1=CC2C=CC(C1C(=O)OC)C1C(C(=O)OC)=C(C(=O)OC)C(C(=O)OC)=C(C(=O)OC)C21OC (stereo not given) |  | > 100 µM
62 | CC(C)CC(N)C(=O)Nc1ccc2ccccc2c1 (stereo not given) |  | > 100 µM
63 | CCN(CC)CSc1nc2ccccc2[nH]1 |  | > 100 µM
64 | CCOC(=O)C(C#N)C1=CC(=O)C(=O)c2ccc(O)cc21 (stereo not given) |  | > 100 µM
65 | COC(=O)c1oc2c(C(=O)/C=C/c3ccc(OC)cc3)c(OCCN(C)C)ccc2c1C | 7.04 µM | 20.9 µM
66 | Cc1ccc2c(=O)cc(-c3ccc4ccccc4c3)[nH]c2n1 |  | > 100 µM
67 | COc1ccc(OC)c(/C=N/N=C(\N)NO)c1 |  | > 100 µM
68 | C#CCN(c1ccc(C(=O)N[C@@H](CCC(=O)N[C@H](CCC(=O)O)C(=O)O)C(=O)O)cc1)C1CCc2cc3nc(CO)[nH]c(=O)c3cc21 (stereo not given in full) | > 100 µM | > 100 µM
69 | Cn1c2c(c3c(Cl)nncc31)Cc1ccccc1-2 | 42.4 µM | > 100 µM
70 | COc1cccc(Nc2nc3ccccc3c3occc23)c1 | 2.58 µM | 8.92 µM
71 | COc1ccc(OC)c2c1C=CC(Br)=CC2 |  | > 1 µM
72 | CSc1nc2c(c(=O)n1C)N=C(c1ccc([N+](=O)[O-])cc1)CC(c1ccccc1)N2 (stereo not given) |  | > 100 µM

Row | Structure (SMILES) | GI50 | TGI
73 | CC(=O)O[C@H]1C(=O)[C@@]2(C)[C@H]([C@H](OC(=O)c3ccccc3)[C@]3(O)C[C@H](OC(=O)[C@H](O)[C@@H](NC(=O)c4ccco4)c4ccccc4)C(C)=C1C3(C)C)[C@]1(OC(C)=O)CO[C@@H]1C[C@@H]2O |  | > 12.5 µM
74 | COc1cc(OC)cc(-c2cc(=O)c3cc4c(cc3[nH]2)OCO4)c1 |  | 31.9 µM
75 | O=[S@]1c2ccc3ccccc3c2N[C@@H]2[C@H]1[C@H]1C=C[C@@H]2C1 |  | > 100 µM
76 | COc1ccc(-c2c3c(n(C4OC(CO)C(O)C(O)C4O)c(=S)c2C#N)CCCC3)cc1 (stereo not given) |  | > 100 µM
77 | O=[N+]([O-])c1cc([N+](=O)[O-])c(Nn2c3ccccc3c3ccccc32)c([N+](=O)[O-])c1 | 0.312 µM | 17.4 µM
78 | C=C(C(=O)OC)[C@@H]1C[C@@H](OC(C)=O)C2=C[C@H](C[C@@]3(C)O[C@@H]3C3=CC(C)=C(O3)[C@H]1OC(C)=O)OC2=O |  | > 100 µM
79 | Cc1ccc(C)n2c1nc1ccccc12 |  | > 100 µM
80 | COc1nc(N)c(NC(C)=O)c(=O)n1C |  | > 100 µM
81 | Cc1ccc2c(=O)cc(-c3ccc(C)s3)[nH]c2n1 |  | > 100 µM
82 | CN(CCCNC(=O)c1cn(C)c2c1Cc1ccccc1-2)CCCNC(=O)c1cn(C)c2c1Cc1ccccc1-2 |  | 24.4 µM
83 | CCC1(c2ccc(N3C(=O)c4cc(OC)c(OC)cc4C3=O)cc2)CCC(=O)NC1=O (stereo not given) |  | > 10 µM
84 | O=C1O[C@H]2[C@H](OC(=O)c3cc(O)c(O)c(O)c3)[C@@H](OC(=O)c3cc(O)c(O)c4c3[C@@H]3C1=CC(=O)C(O)(O)C3(O)O4)[C@H](OC(=O)c1cc(O)c(O)c(O)c1)O[C@@H]2COC(=O)c1cc(O)c(O)c(O)c1 (stereo not given in full) |  | > 100 µM
85 | COc1ccc(N=NC(=O)NC(CC(C)C)C(=O)NCC(=O)O)cc1 (stereo not given) |  | > 100 µM
86 | Cc1cc(C)c(-c2noc(-c3ccc(Cl)cc3)c2C2=NCCCN2)c(C)c1 |  | > 100 µM
87 | C=CCOC(=O)C1=C(C)NC2=N[C@H](CCCCCCCCC)C[C@@H]3CCC1N23 (stereo not given in full) |  | > 100 µM
88 | COC(=O)/C=C1/OC(c2ccccc2)=C(C)C1=O |  | 32.3 µM
89 | OC(CN(CCCl)CCCl)C(O)C(O)C(O)CN(CCCl)CCCl (stereo not given) |  | > 100 µM
90 | CSc1ccc(Nc2cc(=O)[nH]c(=O)[nH]2)cc1 |  | > 100 µM
91 | O=C1C=CC(=O)c2c(O)c3c(c(O)c21)C[C@H](O)[C@H](O)[C@@H]3O |  | 14 µM
92 | O=C1CC(CC(=O)c2ccc(Br)cc2)C(=O)/C1=C(/O)c1ccc(Br)cc1 (stereo not given) |  | > 100 µM
93 | O=C(/C=C\c1cccc2ccccc12)c1ccc(Cl)cc1Cl |  | > 100 µM
94 | CC1=CC(C)(C)NN1C1=NS(=O)(=O)c2ccccc2N1C |  | > 100 µM
